From PubChem BioAssay AID488969 (Vanderbilt High Throughput Screening Facility, 2010) come the findings set out here.

The structures appear in SMILES notation. Whole data set: some 110,000 compounds, median “z-score” near -0.1, cut for the highest 2% near 2. The list shows a part of the results.

This experiment addresses Metabotropic glutamate receptor 8 (Rattus norvegicus) (UniProt P70579). As to the kind of experiment: rat mGluR8 modulators via GIRK flux, primary screen, cell-based, thallium flux, HTS (AID 488969). The note with it: HEK293 rat mGluR8, GIRK (G protein-gated inwardly rectifying potassium channel) thallium flux, FluoZin2; at 10 µM; stronger effect = higher value; submaximal glutamate (EC20) added with thallium.
UniProt P70579, sequence (P70579 whole entry, looked up): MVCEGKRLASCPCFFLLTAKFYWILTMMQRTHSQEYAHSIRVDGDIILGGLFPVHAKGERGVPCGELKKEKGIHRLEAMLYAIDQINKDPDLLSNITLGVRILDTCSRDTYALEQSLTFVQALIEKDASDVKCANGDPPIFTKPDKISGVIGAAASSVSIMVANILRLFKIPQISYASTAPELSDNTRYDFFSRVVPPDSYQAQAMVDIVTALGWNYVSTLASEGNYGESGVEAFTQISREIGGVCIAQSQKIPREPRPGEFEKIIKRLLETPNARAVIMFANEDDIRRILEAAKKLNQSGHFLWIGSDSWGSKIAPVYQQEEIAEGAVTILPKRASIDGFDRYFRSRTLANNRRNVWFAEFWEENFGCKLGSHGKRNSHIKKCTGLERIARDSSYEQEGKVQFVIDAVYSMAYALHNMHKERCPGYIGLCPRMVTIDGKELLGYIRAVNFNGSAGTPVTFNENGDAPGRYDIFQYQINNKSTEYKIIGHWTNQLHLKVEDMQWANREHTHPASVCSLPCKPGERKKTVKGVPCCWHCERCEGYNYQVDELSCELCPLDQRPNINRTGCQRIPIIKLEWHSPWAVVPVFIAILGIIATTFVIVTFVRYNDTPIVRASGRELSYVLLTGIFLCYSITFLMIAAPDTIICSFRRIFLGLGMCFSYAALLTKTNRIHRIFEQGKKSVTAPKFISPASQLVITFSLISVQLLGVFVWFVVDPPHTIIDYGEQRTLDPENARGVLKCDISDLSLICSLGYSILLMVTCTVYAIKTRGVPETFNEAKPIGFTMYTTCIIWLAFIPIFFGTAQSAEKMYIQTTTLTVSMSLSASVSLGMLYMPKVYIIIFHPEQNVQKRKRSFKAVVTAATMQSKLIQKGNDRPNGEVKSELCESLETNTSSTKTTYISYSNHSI
On to `Nc1nonc1-c1nc2ccccc2n1CC(=O)N/N=C\c1ccc(-c2ccc(Cl)cc2)o1`, for which the z-score is -1.01.

For `CCCC12CN3CC(C)(CN(C1)C3c1ccc(OC(C)C)cc1)C2=O` (configuration not stated), the z-score is -0.246.

Molecule `CCOC(=O)c1ccc(N2C(=O)CC(N3CCC(O)(c4ccc(Br)cc4)CC3)C2=O)cc1` (configuration not stated) yielded a z-score of 0.185.

Molecule `O=S(=O)(c1ccc(Br)s1)N1CCc2ccccc2C1` showed a z-score of -0.99.

On to `Cn1c(=O)[nH]c(=O)c2c1nc(CN1CCN(c3ccc(F)cc3)CC1)n2CCc1ccccc1`, for which the z-score is -0.85.

For `Cc1cc(C(=O)Nc2cccnc2)cs1`, the z-score was -0.072.

`COc1ccc(C(=O)CN2CCN(S(=O)(=O)c3cccc([N+](=O)[O-])c3)CC2)cc1` returned a z-score of -2.48.

For `Cc1cc(Cl)c(S(=O)(=O)N2CCSCC2)cc1OCC(=O)NC1CCCCC1`, the z-score is -0.118.

On to `CCc1ccc(OCC(=O)Nc2ccc(-c3cc4ccccc4oc3=O)c(OC)c2)cc1`, for which the z-score was 1.19.

`Cc1cc(C)c(-n2c(C)cc(/C=C3/NC(=O)NC3=O)c2C)c(C)c1` showed a z-score of 2.07.

`Nc1c(N)c2ccccc2oc1=O` had a z-score of 0.0652.

As to `COc1ccccc1NC(=O)Cc1noc(CSc2nnc(C)s2)n1`, the z-score is -0.388.

Regarding `CCCn1c(=NC(C)=O)c(C#N)cc2c(=O)n3cccc(C)c3nc21`, the z-score was -0.594.

`COc1ccc(S(=O)(=O)NCc2cccs2)cc1` came in with a z-score of -0.0134.

Take `O=C(Nc1ccc(S(=O)(=O)N2CCCCC2)cc1)c1ccc(CN2CCOCC2)cc1`: the z-score was -0.0617.

As for `CCOc1ccc2nc(/N=C/c3nc(-c4ccccc4)oc3O)sc2c1`, the z-score was determined as 0.486.

For the molecule `O=C(CC(=O)c1ccccc1)Nc1ccc2c(c1)OCCO2`, the z-score is -0.987.

`N#CC(C#N)=NNc1ccc(S(=O)(=O)N2CCCC2)cc1` had a z-score of 0.271.

Turning to `Cc1ccc(S(=O)(=O)Nc2cc(C(C(=O)OC(C)C)C(=O)C(F)(F)F)c(O)c3ccccc23)c(C)c1` (configuration not stated), the z-score was -0.651.

Molecule `Cc1ccc(NC(=O)c2cccc(N3C(=O)CCC3=O)c2)nc1` showed a z-score of -0.269.

`O=C(Nc1nccs1)c1ccc(NC(=O)c2ccco2)cc1` yielded a z-score of -0.23.

Turning to `O=C(NCc1ccccn1)c1cc2cc(Br)ccc2oc1=O`, the z-score came to 0.154.

The molecule `COc1ccc(CN2C(=O)c3ccccc3C2C(=O)NCC2CCCO2)c(OC)c1` (configuration not stated) yielded a z-score of -0.0786.

The molecule `O=C1C2C3C=CC(C3=C(c3ccccc3)c3ccccc3)C2C(=O)N1CCO` (configuration not stated) displayed a z-score of -0.246.

In turn, `O=C(NCc1ccc2c(c1)OCO2)C1CCN(c2ccc(S(=O)(=O)N3CCCC3)cc2)CC1` came in with a z-score of -0.597.

For the molecule `COc1nccnc1NS(=O)(=O)c1ccc(NC(=S)NC(=O)c2ccc(F)cc2)cc1`, the z-score was -0.21.

Molecule `CSCC[C@H](NC(=O)c1ccc(Cl)c(S(=O)(=O)N2CCCC2)c1)c1nc2ccccc2[nH]1` displayed a z-score of -0.496.

`CCOC(=O)c1c(-c2ccccc2)csc1NC(=O)c1ccc(S(=O)(=O)N2CCOCC2)cc1` registered a z-score of 1.04.

`COc1cc2cc(C(c3nnnn3C3CCCC3)N3CCc4ccccc43)c(=O)[nH]c2cc1OC` (configuration not stated): the z-score is 1.39.

With `FC(F)(F)c1nc(N2CCCC2)ncc1-c1nnnn1-c1ccccc1`, the z-score is -0.441.

In turn, `Cc1ccccc1C(=O)/C(C#N)=N/Nc1c(C)n(C)n(-c2ccccc2)c1=O` had a z-score of -0.305.

`N#Cc1ccc(NC(=O)COC(=O)C2=COCCO2)cc1` displayed a z-score of -0.532.

`O=C(CCN1C(=O)c2ccccc2C1=O)N(CCO)Cc1ccccc1` gave a z-score of 0.0525.

The molecule `COc1ccccc1OCC(=O)NCC1CCCCC1` showed a z-score of -0.0542.

Molecule `Cn1c(C(=O)NCCN2CCOCC2)cc2c(=O)n(C)c3ccccc3c21` registered a z-score of -2.82.

On to `CCCn1c(SCC(=O)N2CCCc3ccccc32)nc2c1c(=O)n(C)c(=O)n2C`, for which the z-score is 0.812.

Molecule `COc1ccc(N2C(=O)CCC(C(=O)NCc3ccccn3)C2c2ccc(F)cc2)cc1` (configuration not stated) returned a z-score of 0.0745.

`O=C(N/C(=C/c1cccs1)C(=O)N1CCCCCC1)c1ccccc1` displayed a z-score of -0.352.

As for `CC1(C)CC2CC(C)(CN2C(=O)C23CCC(C)(C(=O)C2)C3(C)C)C1` (configuration not stated), the z-score was -0.132.

In turn, `CCN(C(=O)COC(=O)c1cccnc1Nc1cccc(C(F)(F)F)c1)C1CCS(=O)(=O)C1` (configuration not stated) had a z-score of 0.101.

`CCOC(=O)Cc1csc(NC(=O)c2cnc3scc(C)n3c2=O)n1` registered a z-score of -0.301.

In turn, `O=C1CSC2=NCN(c3ccccc3)CN12` registered a z-score of -0.295.

Regarding `COC(=O)c1cccc(NC(=O)C23CC4CC(C2)CC(n2cncn2)(C4)C3)c1`, the z-score was -0.387.

Consider `O=C(Cn1nc(C(F)F)cc1C(F)F)N/N=C/c1ccc2c(c1)OCO2`, for which the z-score is -0.226.

Molecule `Cc1ccc(S(=O)(=O)N2CCCCC2)cc1C(=O)Nc1ccc2cn[nH]c2c1` showed a z-score of -0.545.

As for `Cc1ccc(-c2nnc(-c3ccc(NC(=O)c4ccco4)cc3)o2)cc1`, the z-score stood at 0.261.

Consider `C/C(=N\NC(=O)c1ccoc1C)c1cccnc1`, for which the z-score came to 0.566.

As to `COCCOC(=O)C1=C(C)N=C2SCCC(=O)N2C1c1ccc(OC(=O)c2ccco2)cc1` (configuration not stated), the z-score was determined as 1.5.

Consider `Cc1nnsc1C(=O)NC1CCCCC1`, for which the z-score is -0.000764.

The molecule `O=C(CSCc1c(Cl)cccc1Cl)Nc1ccccc1C(=O)N1CCOCC1` yielded a z-score of -0.0398.

On to `CC(CNCc1ccc2c(c1)OCO2)NCc1ccc2c(c1)OCO2` (configuration not stated), for which the z-score was -0.342.

The molecule `CCC(C)Nc1nc(-c2ccc3c(c2)NC(=O)CO3)cs1` (configuration not stated) came in with a z-score of -0.122.

`CCCCCCn1cnc2c(c1=O)c1nc3ccccc3nc1n2/N=C/c1ccco1`: the z-score is -1.38.

`Cc1nc(NC(=O)/C=C/c2ccccc2)sc1C(=O)Nc1ccccc1Cl` registered a z-score of -0.0413.

As to `O=C(CSc1ncccc1C(=O)O)c1ccc2ccccc2c1`, the z-score was -0.64.

`COc1ccc(S(=O)(=O)NC(C)C(=O)O)cc1` (configuration not stated) gave a z-score of -0.408.

Consider `O=C(CCc1nc2ccccc2s1)c1ccccc1`, for which the z-score is -0.0627.

As for `Cc1ccnc(NS(=O)(=O)c2ccccc2)n1`, the z-score is -0.0554.

Turning to `COc1ccc(CN2C3CCCC2CC(NC(=O)Nc2ccccc2)C3)cc1` (configuration not stated), the z-score came out at 0.209.

As for `Cc1ccc(-c2cn(S(=O)(=O)c3ccc(C)cc3)nc2N)cc1`, the z-score was -0.279.

Take `O=C(NCc1ccc(F)cc1)C(Cc1ccccc1)NS(=O)(=O)c1cccs1` (configuration not stated): the z-score is -0.208.

As to `FC(F)Sc1nnc(-c2cccs2)n1-c1ccccc1`, the z-score worked out at 0.436.

As for `Cc1ccc2ncccc2c1NS(=O)(=O)c1ccccc1`, the z-score is -0.246.

The molecule `CSCC[C@H](NC(=O)OC(C)(C)C)C(=O)N1CCC(C(=O)N[C@@H](C)C(=O)O)CC1` showed a z-score of -0.096.

In turn, `CC(=O)c1ccc(OC(C)C)c(CC(C(N)=O)C(N)=O)c1` yielded a z-score of 0.19.

`O=C(c1cc2ccccc2o1)c1cccs1` had a z-score of -0.195.

In turn, `N#Cc1cc(-c2ccc(Cl)cc2)cn(Cc2c(Cl)cccc2Cl)c1=O` gave a z-score of -0.0556.

Turning to `CCOc1ccc(C(=O)Nc2ccc(NC(=O)c3ccco3)c(Cl)c2)cc1Cl`, the z-score is 0.223.

`CC(OC(=O)c1ccccc1Br)C(=O)Nc1nc(-c2cccc([N+](=O)[O-])c2)cs1` (configuration not stated) registered a z-score of -0.102.

For `CCOC(=O)/C=C1\Nc2ccccc2SC1=O`, the z-score is -0.188.

For the molecule `O=c1cc(N2CCOCC2)c2ccccc2o1`, the z-score turned out to be 0.0864.

In turn, `COc1ccc(NS(=O)(=O)c2ccc(OCC(=O)N3CCCC3)cc2)cc1` registered a z-score of -0.41.

With `O=C(CCCN1C(=O)/C(=C/c2ccco2)SC1=S)Nc1ccccc1`, the z-score stood at 0.296.

In turn, `CC(=C/c1ccc(C(C)C)cc1)/C=N/NC(=O)CSc1ccccn1` registered a z-score of -0.28.

Molecule `COc1ccc(C(C)NC(=O)c2ccoc2C)cc1OC` (configuration not stated) displayed a z-score of 0.298.

`O=C(C[n+]1ccc(C(=O)N/N=C/c2ccc(Cl)cc2Cl)cc1)c1ccccc1` displayed a z-score of -0.274.

In turn, `Cc1c(NS(=O)(=O)c2cccc(C(=O)NCc3ccncc3)c2)c(=O)n(-c2ccccc2)n1C` returned a z-score of 0.136.

For the molecule `O=S(=O)(NC1CCCCC1Nc1ccccc1)c1ccccc1` (configuration not stated), the z-score is -0.0931.

In the case of `Cc1cc2nc(C)n(CCCNC(=O)Nc3ccc(C#N)cc3)c2cc1C`, the z-score was -0.713.

Regarding `Cc1nnc(SCC(=O)Nc2ccccc2NC(=O)CSc2nnc(C)s2)s1`, the z-score was -0.284.

`O=C(CCn1c(=O)sc2ccccc21)NC1=NCCS1` showed a z-score of -0.116.

`CCOCC(=O)Nc1cc(C(=O)Nc2ccccc2)ccc1Cl` yielded a z-score of -0.272.

`CN(C(=O)c1ccccn1)c1nnc(-c2cccnc2)s1` displayed a z-score of 0.281.

For the molecule `O=C(NC12CC3CC(CC(C3)C1)C2)c1ccc(COc2ccc(Cl)cc2[N+](=O)[O-])o1`, the z-score was -0.187.

Molecule `FC(F)(F)c1cc(C(F)(F)F)c2ccc(N3CCN(c4ccccc4)CC3)nc2n1` had a z-score of 0.0521.

`O=C(COc1ccc2ccccc2c1)NCC(=O)N/N=C/c1ccco1` gave a z-score of -0.0967.

Consider `COc1ccc(C(=O)N(NC(=O)Oc2ccccc2)C(C)(C)C)cc1`, for which the z-score came to 0.485.

The molecule `CCOc1ccc(-n2c(SCc3ccc([N+](=O)[O-])cc3)nnc2-c2ccccc2)cc1` displayed a z-score of -0.0627.

As to `COC(=O)CC1=C(C(=O)OC)C(c2ccncc2)C(C#N)=C(N)O1` (configuration not stated), the z-score stood at 0.588.

On to `O=C(Nc1ccc(Cl)cc1C(=O)NCCN1CCOCC1)c1ccco1`, for which the z-score was 0.442.

On to `CC(=O)c1cccc(NC(=O)CN(C2CCCCC2)S(C)(=O)=O)c1`, for which the z-score was 0.131.

As to `COc1ccc(C(CC(=O)O)NC(=O)c2sc3ccccc3c2Cl)cc1` (configuration not stated), the z-score is -0.476.

In the case of `Cc1nc2ccccc2c(=O)n1NC(=O)/C=C/c1ccc(Br)cc1`, the z-score was found to be 0.016.

As to `COc1ccc(CCn2c(C(C)C)nc3c(c(=O)c4ccccc4n3C)c2=O)cc1`, the z-score was -0.648.

`CSc1ccc(CNc2cccc3ccccc23)cc1` showed a z-score of -0.0822.

Molecule `CC(C)C(=O)Nc1cccc(C(=O)Nc2ccccc2C(=O)O)c1` displayed a z-score of -1.02.

`COc1ccccc1-c1c(C)nn2c(N3CCN(Cc4ccccc4)CC3)cc(C)nc12`: the z-score stood at 0.352.

Regarding `CCOC(=O)C1=C(c2ccccc2)Nc2ncnn2C1c1ccccn1` (configuration not stated), the z-score is -0.761.

Regarding `CC(C)(C)n1nnnc1C(c1cccnc1)N(Cc1ccccc1)Cc1ccco1` (configuration not stated), the z-score is -0.411.

Consider `O=C(NCCC1=CCCCC1)c1cc2c(s1)CS(=O)(=O)C2`, for which the z-score is -0.138.

`CCCCCCOC(=O)Nc1ccc(S(=O)(=O)Nc2cccc([N+](=O)[O-])c2)cc1`: the z-score was -0.217.

In turn, `COC(=O)c1ccc(N2C(=O)CC(N3CCN(c4ccccc4)CC3)C2=O)cc1` (configuration not stated) yielded a z-score of -0.165.

In the case of `N#CC1=C(SCc2ccccc2)NC(=O)CC1c1ccc(O)cc1` (configuration not stated), the z-score came to 0.918.

`O=C(NCc1ccco1)c1ccc(Oc2ccccc2)cc1` had a z-score of -0.352.

Molecule `N#CC(c1ccc(Cl)cc1)c1nc2ccccc2nc1C(F)(F)F` (configuration not stated) returned a z-score of -0.127.

Molecule `Cc1cccc(C)c1NC(=O)CCN1C(=O)C2C3CCC(C3)C2C1=O` (configuration not stated) displayed a z-score of 0.139.

For the molecule `Cc1ccc(CC(=O)Nc2ccc(F)c([N+](=O)[O-])c2)cc1`, the z-score came out at 0.357.
